# Results: PubChem BioAssay AID1508642 (National Center for Advancing Translational Sciences (NCATS), 2021)
# About 200 (0.47%) of roughly 43,000 compounds were called active. Inconclusive results (about 12%) are left out. Calls come from the whole dose curve; as a rule, active = well fitted cell-killing curve with a large enough effect; inconclusive = small, poorly fitted or top-dose-only effect, or effect the other way; inactive = flat fitted curve, though single readings scatter. The list shows a part of the results.
# Experiment: Cell viability qHTS assay in S16 Pmp22-F2sN cells; note: nearly all actives have a fitted effect of over 65% in size
# Details: S16 Pmp22-F2sN Schwann cells (luciferase reporters placed in the Pmp22 gene) viability, CellTiter-Glo, 24 h; series mostly up to 57.5 µM; activity change, negative = cytotoxicity: at the top concentration
# Summary of the method: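 S16 Schwann cells carrying the Pmp22-F2sN reporter, seeded in 1536-well format, were exposed to library compounds for 24 h at 37C. Viability was read as CellTiter-Glo luminescence after 15 min at room temperature.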
# % is set by controls: 0 for no effect and ±100 for the full control effect.
row,Compound,"activity change, negative = cytotoxicity"
1,CCc1nc2ccccc2n1CCCCOc1ccccc1C,inactive: -14.2%
2,CCc1ccccc1NC(=O)Cn1c(=O)nc(-c2ccccc2)c2ccccc21,inactive: 6.83%
3,COc1ccc(CCNC(=O)CCn2c(=O)c3ccccc3n(Cc3ccc(Cl)cc3)c2=O)cc1OC,inactive: -14.9%
4,COc1ccc(S(=O)(=O)c2cn(Cc3ccccc3)c3cc(N4CCCC4)c(F)cc3c2=O)cc1,inactive: -7.83%
5,COc1ccc(CCNC(=O)CCCCn2c(=O)c3ccccc3n(CC(=O)Nc3ccccc3C)c2=O)cc1OC,inactive: 8.09%
6,CCCOc1cccc(C(=O)Nc2ccc(-c3nc4ccccc4s3)c(Cl)c2)c1,inactive: 4.54%
7,CCN1C(C(=O)c2ccccc2)=C(OC(=O)C(C)C)c2ccccc2S1(=O)=O,inactive: -11.3%
8,CCCC(O)c1nc2ccccc2n1CCCCOc1ccc(OC)cc1 (configuration not stated),inactive: -1.92%
9,Cc1cc(C)cc(NC(=O)CSc2nncn3c2cc2occc23)c1,inactive: -1.33%
10,COc1ccc(CNC(=O)C2CCN(c3nc4ccc(C)cc4[nH]3)CC2)cc1,inactive: 0.113%
11,CCOc1ccc(CCNC(=O)Cn2nc(CC)n3c(cc4sc(CC)cc43)c2=O)cc1OCC,inactive: 0.666%
12,CCCCCn1c(=N)c(S(=O)(=O)c2ccccc2)cc2c(=O)n3ccccc3nc21,inactive: 10.8%
13,CC(NC(=O)c1ccc2c(c1)N(Cc1ccc(Cl)cc1)C(=O)c1ccccc1S2(=O)=O)c1ccccc1 (configuration not stated),inactive: 20.5%
14,CCOc1cc2sc(N3CCC(C(=O)Nc4ccc(C)cc4)CC3)nc2cc1Br,inactive: -2.22%
15,CCOC(=O)c1sc(NC(=O)c2nc3ncccn3n2)c(C(=O)OC)c1C,inactive: -2.39%
16,CCc1ccc(CSc2nc(-c3ccc(OC)cc3)nc3c2Cc2c(CO)cnc(C)c2O3)cc1,inactive: 5.7%
17,CCn1c(=O)c2cc(C(=O)NC3CCCCCC3)sc2c2ccccc21,inactive: 2.52%
18,O=c1oc2c(CN3CCOCC3)c(O)ccc2cc1-c1ccc(Cl)cc1,inactive: -6.52%
19,Cc1ccc(NC(=O)Cn2ncn3c(cc4ccccc43)c2=O)c(C)c1,inactive: 7.2%
20,CCOc1ccc(C2CC(=O)n3nc(-c4ccc(C)cc4)nc3S2)cc1 (configuration not stated),inactive: 0.791%
21,COc1ccc(CNC(=O)CSc2nc3ccsc3c(=O)n2Cc2ccccc2Cl)cc1,inactive: 18.5%
22,CCc1ccc(N2C(=O)CC(c3cc(OC)ccc3OC)C3=C2COC3=O)cc1 (configuration not stated),inactive: 14.5%
23,Cc1cc2oc(C(=O)Nc3sc4c(c3C(=O)NCC3CCCO3)CCC4)cc(=O)c2cc1C (configuration not stated),inactive: 1.49%
24,O=C(Nc1ccc2oc(-c3cccnc3)nc2c1)c1ccc(-c2ccc(Cl)cc2)o1,inactive: 13.3%

row,Compound,"activity change, negative = cytotoxicity"
1,CCOc1cc(CNC(=O)c2ccc(C)c(NC(=O)c3nsc4ccccc34)c2)ccc1OC,inactive: 3.67%
2,COc1ccccc1CNC(=O)Cc1csc2nc(-c3ccc(Cl)cc3)cn12,inactive: 6.29%
3,COc1cc(CNc2ccc3[nH]c(=O)[nH]c3c2)ccc1OCc1ccccc1F,inactive: 0.656%
4,CCN(C(=O)CSc1nc2ccccc2n1CC(=O)Nc1ccccc1C)c1ccccc1,inactive: 6.52%
5,COc1ccc(-n2ccn(Cc3ccccc3Cl)c(=O)c2=O)cc1OC,inactive: -4.08%
6,Cc1cc(C)cc(NC(=O)CCc2nnc3n(CC(C)C)c(=O)c4ccccc4n23)c1,inactive: 16%
7,CC(C)N(Cc1ccccc1)C(=O)CN1C(=O)COc2ccc(S(=O)(=O)NC3CCCC3)cc21,inactive: -7.33%
8,Cc1ccc(NC(=O)CSc2nc3nccnc3c(=O)n2CCc2c[nH]c3ccccc23)cc1,inactive: 0.653%
9,CCOC(=O)c1cc2c(=O)n3ccccc3nc2n(CCCOC)c1=NC(=O)C(C)(C)Oc1ccc(Cl)cc1,inactive: -22.8%
10,CN(C)c1ccc(C(CNS(=O)(=O)c2ccc(Br)cc2)N2CCCC2)cc1 (configuration not stated),inactive: 2.47%
11,O=C(CCNS(=O)(=O)c1ccc2c(c1)CCN2C(=O)C1CC1)N1CCN(c2ccccc2F)CC1,inactive: -15.1%
12,CCOc1ccc(S(=O)(=O)N2CCN(c3ccc(Cl)c(Cl)c3)CC2)c2ccccc12,inactive: -5.71%
13,COc1ccccc1CNC(=O)CN1C(=O)CSc2ccc(S(=O)(=O)N(C)C)cc21,inactive: -6.95%
14,CCc1nc2cccnc2n1-c1ccc(CC(=O)Nc2ccc(C)cc2)cc1,inactive: -15.2%
15,O=C(Cn1c(=O)n(-c2ccccc2Cl)c(=O)c2sc3ccccc3c21)N1CCCC1,inactive: 11.2%
16,CCOc1ccc(CNC(=O)c2cnc3sc(N(CC)CC)nn3c2=O)cc1OC,inactive: -0.809%
17,CCCn1c(CCC(=O)Nc2cc(Cl)c(OC)cc2OC)nc2cccnc21,inactive: -3.64%
18,COc1ccc(NC(=O)CC2C(=O)N(c3ccc(C)cc3)C(=O)N2C2CCCCC2)cc1 (configuration not stated),inactive: 9.89%
19,O=C(CCSCc1ccccc1Cl)N1CCN(c2cccc(Cl)c2)CC1,inactive: -1.07%
20,CCn1nc(-c2ccccc2)c(-c2ccccc2)c(C(=O)Nc2nc(C)c(C(=O)N(C)C)s2)c1=O,inactive: 0.611%
21,COc1cc(/C=C(\C#N)c2nc3ccccc3[nH]2)ccc1OCc1cccc(C(F)(F)F)c1,inactive: -3.83%
22,CCOc1ccccc1NC(=O)c1ccc(F)c(S(=O)(=O)NCc2ccc3c(c2)OCO3)c1,inactive: -1.12%
23,CCCCNC(=O)CCCn1c(=O)c2ccccc2n(CC(=O)Nc2ccccc2OCC)c1=O,inactive: -7.72%
